The values that follow come from the supplement of paper PMC11417369.

± gives the standard deviation of the averaged measurements. Some of the results follow.

The test system of this assay is PfAP2-I AP2 domain 3 (GST-tagged). The assay is described as follows: gcPBM binding intensity (ln(normalized median fluorescence intensity)); higher = stronger DNA binding. Put shortly: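 An Agilent 4 × 180k array carrying primer-extended double-stranded 36-bp intergenic genomic probes and negative controls received GST-tagged P. falciparum DNA-binding domains expressed in E. coli, about 25 μg on average, for 1 h. The binding buffer contained 1× PBS, 1% milk, 0.2 mg/ml BSA, 0.5% salmon testes DNA and 0.03% Triton X-100. Binding intensity is the top Masliner-normalised natural-log median intensity across replicate spots of either probe orientation, read after Alexa488 anti-GST antibody staining and a 488 nm scan.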
Regarding “TATAAATATATATTTTGTACTTAATATAAATTTATA [XGTACX_site7996]”, the “gcPBM binding intensity (ln)” value came out at 7.5 ± 0.35. As for “TTTTATAATTTCTTCTGTACATATATATGAAAATAT [XGTACX_site74]”, the “gcPBM binding intensity (ln)” value amounted to 8.05 ± 0.47. In the case of “TCAACCAAAACATAAGCATGCAATATATTTTTATAC [TGCATGCA_site560]” it was 7.8 ± 0.68; in that of “AAAAAAAAATATAACAGTACATAAACATATGAATAT [XGTACX_site7093]”, 7.57 ± 0.72. As to “TTATATATTTTTATGTGTACTTATATATATATATAT [XGTACX_site6211]”, the “gcPBM binding intensity (ln)” value worked out at 9.41 ± 0.32.

With “AACAAAAACACTTTTACACACATAAGTAAAATATAT [CACACA_site1994]”, the “gcPBM binding intensity (ln)” value was found to be 7.85 ± 0.57. In the case of “CACAAAGACACAAACACACACACACCCACATACATA [CACACA_site452]”, the “gcPBM binding intensity (ln)” value turned out to be 8.14 ± 0.19. In the case of “ATTTCCCTATATAGAGCATGCACTATATTCAAATGA [TGCATGCA_site531]” it was 8.79 ± 0.33. The result for “AATATTTATTTTATATGTACATAATTTATTTTTAAT [XGTACX_site776]” reads 7.8 ± 0.41. The result for “AAAAAAAAAAAAAAAACACACAAGGATCATATATAT [CACACA_site3812]” reads 8.62 ± 0.5; that for “GATTTGTCTTACAGTGGTACACTTATATATATGTGA [XGTACX_site2899]”, 7.88 ± 0.63; that for “TTTTTTTATATAGACACAAAAGAAAATTACATATAC [CACACA_negctrl_site235]”, 7.92 ± 0.56. Take “TATAATATATATATATTTATATATATCTTCCTAATC [GTGCAC_negctrl_site682]”: the “gcPBM binding intensity (ln)” value stood at 7.45 ± 0.2. The result for “TATGAAGTACACAATACACACTAATTATATATAAAT [CACACA_site5444]” reads 7.88 ± 0.28; that for “TTTTTAAAAAAACATACACACAAAAAAAAAAAAAAA [CACACA_site3935]”, 8.11 ± 0.67. The result for “TATATATATTATAATACATGCGGTGATGAAAGTTAT [TGCATGCA_site924]” reads 8.2 ± 0.73; that for “TATAAATATAGACACACACACACCAAAGCGTAGCGC [CACACA_site6179]”, 7.49 ± 0.65. With “TATATATATATATGATGTACATGAAAATTTCCAAAA [XGTACX_site5472]”, the “gcPBM binding intensity (ln)” value turned out to be 9.63 ± 0.41. Regarding “ATATCTGAAGTGTAAAGTACATATATATATTCATAT [XGTACX_site4612]”, the “gcPBM binding intensity (ln)” value came to 7.82 ± 0.32. The result for “TATATTTTTTAATTCACACAAAAATGAAAAATATTT [CACACA_site6001]” reads 7.68 ± 0.45. The result for “CAATTTTACTCATAAACACACATATAGATGTTATTA [CACACA_site7474]” reads 7.76 ± 0.39. The result for “AATGGAGTTTATAAGTATAAACGAGGGATACCTAAA [XGTACX_negctrl_site483]” reads 7.88 ± 0.7; that for “AATATAAATAATAGTAGTACATATATATCTCAGAAA [XGTACX_site4055]”, 7.68 ± 0.36. With “TTATGTTGTAAATGCACACATACATATACGCAGTTT [CACACA_site3015]”, the “gcPBM binding intensity (ln)” value worked out at 9.76 ± 0.45.
